Some of these densities may be calculated back from excess volumes.
Assay: xn = mol fraction of the nth substance listed
Conditions: 101 kPa

CN1CCCC1=O + CCCC[P+](C)(CCCC)CCCC.COS(=O)(=O)[O-]
x2 = 0
Conditions	mass density [kg/m3]
293.15 K	1032.7
298.15 K	1025.8
303.15 K	1023.7
308.15 K	1019.3
313.15 K	1014.7
318.15 K	1010.2
323.15 K	1005.8

CCCC[P+](C)(CCCC)CCCC.COS(=O)(=O)[O-] + CN1CCCC1=O
mass density [kg/m3]
Conditions	293.15 K	298.15 K	303.15 K	308.15 K	313.15 K	318.15 K	323.15 K
x1 = 0.056	1038.6	–	1032.4	1027.4	–	1018.5	1013.9
x1 = 0.0914	1041.9	1039.2	–	1031.4	1026.8	1022.5	–
x1 = 0.1311	1044.7	1043.4	1040.2	1035.6	1031	1026.3	1021.6
x1 = 0.1773	1047.6	1046.8	–	1039	–	1029.9	1025.1
x1 = 0.2318	1050.1	1050.1	–	1042.5	1037.9	–	1028.7
x1 = 0.2971	1053.4	1052.8	–	1045.2	1041.1	1036.6	1032.2
x1 = 0.3764	1055.7	–	1051.7	1047.7	1043.7	1039.7	1035.5
x1 = 0.4752	1057.9	1056.2	1053	1049	1045.3	1041.4	1037.7
x1 = 0.6014	1059.4	1057.2	1054	1050	1046.5	1042.9	–
x1 = 0.7129	1059.8	–	1054.4	1050.8	1047.5	–	1040.7
x1 = 0.8086	–	–	–	1051.5	1048.2	–	1041.7
x1 = 0.8515	1061.2	1058	1054.9	1051.7	1048.5	1045.3	1042
x1 = 0.9022	1061.7	1058.1	–	1051.9	1048.7	1045.5	1042.4
x1 = 0.9468	1061.5	1058.4	–	1052.2	1049.1	1045.9	1042.8
x1 = 1	1061.7	–	1055.6	1052.5	1049.5	1046.5	1043.4
